Measured values: the supplement of paper PMC8728848
This is one part of the list.

How the values were obtained:
Test in all cases: glycan array binding signal (z-score within array); higher = stronger binding
Details in all cases: glycan notation: IUPAC condensed, linker removed
[1] = target: GlcNAc(b1-3)Gal(b1-4)GlcNAc(b1-3)Gal(b1-4)GlcNAc(b1-2)Man(a1-3)[GlcNAc(b1-3)Gal(b1-4)GlcNAc(b1-3)Gal(b1-4)GlcNAc(b1-2)Man(a1-6)]Man(b1-4)GlcNAc(b1-4)GlcNAc
Procedure, shortened: (§1)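 The binding signal is a Z-score computed within each array. Data were drawn from 3228 arrays in the Consortium for Functional Glycomics database, restricted to those with a known protein sequence. Scores were averaged over arrays of the same protein sequence at different concentrations or buffers, and over linkers, and negative values can be taken as non-binding.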

[2] = target: GlcNAc(b1-3)Gal(b1-4)GlcNAc(b1-3)Gal(b1-4)GlcNAc(b1-2)Man(a1-3)[GlcNAc(b1-3)Gal(b1-4)GlcNAc(b1-3)Gal(b1-4)GlcNAc(b1-2)Man(a1-6)]Man(b1-4)GlcNAc(b1-4)[Fuc(a1-6)]GlcNAc
Procedure, shortened: as §1

[3] = target: GlcNAc(b1-3)Gal(b1-4)GlcNAc(b1-3)Gal(b1-4)GlcNAc(b1-2)[GlcNAc(b1-3)Gal(b1-4)GlcNAc(b1-3)Gal(b1-4)GlcNAc(b1-6)]Man(a1-6)[GlcNAc(b1-3)Gal(b1-4)GlcNAc(b1-3)Gal(b1-4)GlcNAc(b1-2)Man(a1-3)]Man(b1-4)GlcNAc(b1-4)[Fuc(a1-6)]GlcNAc
Procedure, shortened: as §1

[4] = target: GlcNAc(b1-3)Gal(b1-4)GlcNAc(b1-3)Gal(b1-4)GlcNAc(b1-3)Gal(b1-4)GlcNAc(b1-2)Man(a1-3)[GlcNAc(b1-3)Gal(b1-4)GlcNAc(b1-3)Gal(b1-4)GlcNAc(b1-3)Gal(b1-4)GlcNAc(b1-2)Man(a1-6)]Man(b1-4)GlcNAc(b1-4)GlcNAc
Procedure, shortened: as §1

[5] = target: GlcNAc(b1-3)Gal(b1-4)GlcNAc(b1-3)Gal(b1-4)GlcNAc(b1-3)Gal(b1-4)GlcNAc(b1-2)Man(a1-3)[GlcNAc(b1-3)Gal(b1-4)GlcNAc(b1-3)Gal(b1-4)GlcNAc(b1-3)Gal(b1-4)GlcNAc(b1-2)Man(a1-6)]Man(b1-4)GlcNAc(b1-4)[Fuc(a1-6)]GlcNAc
Procedure, shortened: as §1

[6] = target: GlcNAc(b1-3)Gal(b1-4)GlcNAc(b1-3)Gal(b1-4)GlcNAc(b1-3)Gal(b1-4)GlcNAc(b1-2)[GlcNAc(b1-3)Gal(b1-4)GlcNAc(b1-3)Gal(b1-4)GlcNAc(b1-3)Gal(b1-4)GlcNAc(b1-6)]Man(a1-6)[GlcNAc(b1-3)Gal(b1-4)GlcNAc(b1-3)Gal(b1-4)GlcNAc(b1-3)Gal(b1-4)GlcNAc(b1-2)Man(a1-3)]Man(b1-4)GlcNAc(b1-4)[Fuc(a1-6)]GlcNAc
Procedure, shortened: as §1

[7] = target: GlcNAc(b1-3)Gal(b1-4)GlcNAc(b1-3)Gal(b1-4)GlcNAc(b1-3)Gal(b1-4)GlcNAc(b1-3)Gal(b1-4)GlcNAc(b1-2)Man(a1-3)[GlcNAc(b1-3)Gal(b1-4)GlcNAc(b1-3)Gal(b1-4)GlcNAc(b1-3)Gal(b1-4)GlcNAc(b1-3)Gal(b1-4)GlcNAc(b1-2)Man(a1-6)]Man(b1-4)GlcNAc(b1-4)GlcNAc
Procedure, shortened: as §1

[8] = target: GlcNAc(b1-3)Gal(b1-4)GlcNAc(b1-3)Gal(b1-4)GlcNAc(b1-3)Gal(b1-4)GlcNAc(b1-3)Gal(b1-4)GlcNAc(b1-2)Man(a1-3)[GlcNAc(b1-3)Gal(b1-4)GlcNAc(b1-3)Gal(b1-4)GlcNAc(b1-3)Gal(b1-4)GlcNAc(b1-3)Gal(b1-4)GlcNAc(b1-2)Man(a1-6)]Man(b1-4)GlcNAc(b1-4)[Fuc(a1-6)]GlcNAc
Procedure, shortened: as §1

[9] = target: GlcNAc(b1-3)Gal(b1-4)GlcNAc(b1-3)Gal(b1-4)GlcNAc(b1-3)Gal(b1-4)GlcNAc(b1-3)Gal(b1-4)GlcNAc(b1-2)[GlcNAc(b1-3)Gal(b1-4)GlcNAc(b1-3)Gal(b1-4)GlcNAc(b1-3)Gal(b1-4)GlcNAc(b1-3)Gal(b1-4)GlcNAc(b1-6)]Man(a1-6)[GlcNAc(b1-3)Gal(b1-4)GlcNAc(b1-3)Gal(b1-4)GlcNAc(b1-3)Gal(b1-4)GlcNAc(b1-3)Gal(b1-4)GlcNAc(b1-2)Man(a1-3)]Man(b1-4)GlcNAc(b1-4)[Fuc(a1-6)]GlcNAc
Procedure, shortened: as §1

[10] = target: GlcNAc(b1-3)Gal(b1-4)GlcNAc(b1-3)Gal(b1-4)GlcNAc(b1-3)GalNAc
Procedure, shortened: as §1

[11] = target: GlcNAc(b1-3)Gal(b1-4)GlcNAc(b1-3)GalNAc
Procedure, shortened: as §1

[12] = target: GlcNAc(b1-3)Gal(b1-4)GlcNAc(b1-3)[GlcNAc(b1-3)Gal(b1-4)GlcNAc(b1-3)]GalNAc
Procedure, shortened: as §1

[13] = target: GlcNAc(b1-3)Gal(b1-4)GlcNAc(b1-6)[Gal(b1-3)]GalNAc
Procedure, shortened: as §1

[14] = target: GlcNAc(b1-3)Gal(b1-4)GlcNAc(b1-6)[GlcNAc(b1-3)Gal(b1-3)]GalNAc
Procedure, shortened: as §1

[15] = target: GlcNAc(b1-3)Gal(b1-4)GlcNAc(b1-6)[GlcNAc(b1-3)]Gal(b1-4)GlcNAc
Procedure, shortened: as §1

GlcNAc(b1-3)GalNAc = target: GlcNAc(b1-3)GalNAc
Procedure, shortened: as §1

GlcNAc(b1-3)Man = target: GlcNAc(b1-3)Man
Procedure, shortened: as §1

[16] = target: GlcNAc(b1-3)[GlcNAc(b1-4)][GlcNAc(b1-6)]GlcNAc
Procedure, shortened: as §1

[17] = target: GlcNAc(b1-3)[GlcNAc(b1-6)]Gal(b1-4)GlcNAc
Procedure, shortened: as §1

[18] = target: GlcNAc(b1-3)[GlcNAc(b1-6)]GalNAc
Procedure, shortened: as §1

[19] = target: GlcNAc(b1-4)Gal(b1-4)GlcNAc
Procedure, shortened: as §1

GlcNAc(b1-4)GlcNAc = target: GlcNAc(b1-4)GlcNAc
Procedure, shortened: as §1

[20] = target: GlcNAc(b1-4)GlcNAc(b1-4)GlcNAc
Procedure, shortened: as §1

B1: Cp ZmpB (Clostridium perfringens), Q0TR08 (protein)
chain: MNKRKIAAIILATMITNLSATTIDVLAQELNTKNNSKVEVSHDDESHQARVSKFDLYNSDKLDAYNQEFQVSRSNIKSINNNGGKYNSSTIDKAIDGNLETHWETGKPNDANFTNEVVVTFNEITNIDRIVYSARRDSARGKGFAKEFEIYASLKDEGDDFNLVSSGEYTESTRDLVEIKFNPTDFKRLKFKFKKADQNWASAAEFMFYKEDKLNEKFNGLFTDSSMNKVSEEFNTLEKLNAFENELKDHPIYDLYKEGLNNARAILTETSENPTKATLGQITYNLNDDYNNQYRMPYKNIKAIKNNGRHYAAQNIEKAIDNDVNTYWETGTLNSSSFNNEVEVEFNDLVTLDRIVYGSRQSDLKGFAEEVYIYASRTSKGDTYKLVATGAHEATKGLVEAKFEPTEFKRVKFKFKKSKQNSATLNELMFYKPDEVYSSIPKLFTDGTMSELSEEFNSLEKINAFKEKAKNHPLYNDFNETIELAESLISNPRKEDVLELEMRGDSISEAKKRKVWNFQDWQITGLSARAGDKITVYVDVAEGDPTPTLLYKQSLTQHGGATSFQLKPGKNEITIPEINYESNGIPKDVIQGGDLFFTNYKSDSQKRAPKVRIEGASKYPVFILGKSDENEVMKELEAYVEKIKAEPKTTPNIFAVSSNKSLEFVQATYALDWYKKNNKTPKYTAEQWDQYIADAMGFWGFDNSKDVNSDFNFRIMPMVKNLSGGAFMNAGNGVIGIRPGNQDAILAANKGWGVAHELGHNFDTGGRTIVEVTNNMMPLFFESKYKTKTRITDQNIWENNTYPKVGLDDYSNNELYNKADSTHLAQLAPLWQLYLYDNTFYGKFERQFRERDFGNKNREDIYKSWVVAASDAMELDLTEFFARHGIRVDDKVKEDLAKYPKPDKKIYYLNDLAMNYKGDGFTENAKVSVSTSGSNGNIKLSFSVDDENKDNILGYEIRRDGKYVGFTSNDSFVDTKSNLDEDGVYVVTPYDRKLNTLNPIEVNALQPTLSVNPVITLALGEEFNEEEYIVAKDIKGNSLSESVKVKSSNVNTSKVGEYEVLYSLEDSKGNEYTKTSKVNVVSRKEYMSDLTPKQSSNGWGTVRKDKSISGGVIGLTRDGDFVDYNKGLGLHSNAEYVYDLEGKDYDYFESYVGVDKAMSSRPASSVIFKVLVDGEEKFNSGVMRSTTPQKYVKVDVKNAKELKLIVNDAGDGDSSDHASFGDAKLATLSSKPIIKGENLAYSMDEKVDLMKGITATDIEDGNITSKVQIKSSDFVEGKSGIFTVVYSVTDSDGLTSECSRTIAVTDKETQLSDLNWKSATIGSGSVRKDRAVSGNQIRLLNEDNSVETFAKGIGTHSYSEIVYNSEGYDIFDTWVGIDRHVADKKVSSVKFKVYVDGELKAETDVMRIDTPKKRLVVDVRNSKEIKLVVDVADNGNNWDHADWADAKFRNLAEYDASELNKAIEEAKKLDLNNYTEESSEALKNAISKGEEALLSKDKETINSALEELNKEMNSLVKVDLNAVINIPDKYLLKSIQNQLNKTGDITLGDMYSLTTLTLSGVEDLTGLENAKNLETLNMDYNEVKDLRPLSKLKKLNTLNAQEQFIAAGELKPSNGKVIGDSKVYNREGKNVAKTIRVVDKNGNTILEQDAKDEFTINTKDLSSGLYGVHVLFEDEGFSGVMFYLFNV
- glycan array binding signal (z-score) [1]: -0.216
- glycan array binding signal (z-score) [2]: -0.131
- glycan array binding signal (z-score) [3]: -0.163
- glycan array binding signal (z-score) [4]: -0.275
- glycan array binding signal (z-score) [5]: -0.089
- glycan array binding signal (z-score) [6]: -0.173
- glycan array binding signal (z-score) [7]: -0.365
- glycan array binding signal (z-score) [8]: -0.456
- glycan array binding signal (z-score) [9]: 0.917
- glycan array binding signal (z-score) [10]: -0.106
- glycan array binding signal (z-score) [11]: -0.04
- glycan array binding signal (z-score) [12]: -0.387
- glycan array binding signal (z-score) [13]: -0.338
- glycan array binding signal (z-score) [14]: -0.206
- glycan array binding signal (z-score) [15]: 0.448
- glycan array binding signal (z-score) (GlcNAc(b1-3)GalNAc): 0.23
- glycan array binding signal (z-score) (GlcNAc(b1-3)Man): 0.057
- glycan array binding signal (z-score) [16]: -0.302
- glycan array binding signal (z-score) [17]: -0.215
- glycan array binding signal (z-score) [18]: -0.207
- glycan array binding signal (z-score) [19]: -0.189
- glycan array binding signal (z-score) (GlcNAc(b1-4)GlcNAc): 0.082
- glycan array binding signal (z-score) [20]: -0.137
